# Source: article PMC3950666, “Cellular trafficking determines the exon skipping activity of Pip6a-PMO in mdx skeletal and cardiac muscle cells” (Nucleic Acids Research, 2013)
# System: H2k mdx myotubes
# Assay: Intracellular distribution by fluorescence microscopy in H2k mdx myotubes
# Assay type: cell-based, mouse
# Conditions: 1000 nM; all analysed conditions (myoblasts and myotubes of H2k mdx and C2C12 cells)
# Method: Cells were then transfected with Pip6a-PMO-CF (1 µM) or PMO-CF (1 µM) for 1 h or 4 h. Ten minutes before the end of the incubation, 1 µl Hoechst 33342 dye (Invitrogen Life technology) was added to each dish to visualize the nucleus. The excess of conjugate or dye was eliminated by washing (2x PBS). Finally, 2 ml of OptiMEM were added as a final volume and 10 µl of trypan blue solution (Invitrogen Life technology) were added to quench extracellular fluorescence. Fluorescent images were captured immediately using a Zeiss Axiovert 200 M fluorescence microscope and the Axio Vision software (Carl Zeiss).
substance,measurement,value
"PMO: phosphorodiamidate morpholino oligomer 5′-GGCCAAACCTCGGCTTACCTGAAAT-3′ with 5′-amino linker and 3′-fluorescein label, Gene Tools (morpholino, 5'-amino linker, 3'-fluorescein, chemistry not fully specified) [reference compound]",fluorescent signal in cells,did not yield any detectable fluorescent signal
